Structures are written as SMILES. Among all 48,000 compounds or so, about 120 (0.25%) were called active. Not shown: some 4% with an inconclusive outcome. The call rests on the fitted dose curve; in most records, active means well fitted activation curve with a large enough effect; inconclusive means small, poorly fitted or top-dose-only effect, or another doubt; inactive means no such curve, though single readings can be large or run the other way. The list shows a part of the results.
Potency means the concentration at half of the fitted maximal effect.

A short description of the test: Primary qHTS for Identification of Small Molecule Activators of Huntingtin-Antisense Promoter Activity. Further: nearly all actives have a fitted effect of over 55% in size. The settings on record: HEK293 HTT-AS promoter firefly luciferase reporter (activity 0% = vehicle and -100% = no light), 24 h; series mostly up to 57.5 µM; activity change, positive = activation: at the top concentration. The essentials: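 Firefly luciferase signal from promoter-reporter HEK293 cells was scaled between vehicle (0%) and zero RLU (-100%). Compounds were tested at final concentrations of up to 57.5 uM over 24 h at 37 degrees C. PTC124 at 50 uM final served as control inhibitor.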
On to `NC(=O)c1ccc2nc(-c3ccc(Oc4ccc(Cl)cc4)cc3)[nH]c2c1`, for which the “activity change, positive = activation” value is inactive: 18.8%. Take `COc1ccc(N2CC(NC(=O)c3ccc(S(=O)(=O)N4CCOCC4)cc3)CC2=O)cc1OC` (configuration not stated): the “activity change, positive = activation” value was inactive: -14%. Consider `CCc1ccc(S(=O)(=O)N(C(=O)Oc2ccccc2)c2ccc3oc(C)c(C(=O)OC)c3c2)cc1`, for which the “activity change, positive = activation” value is inactive: -90.7%. Turning to `CCCCNC(=O)C1CCC(CNS(=O)(=O)c2ccc(Cl)cc2)CC1` (configuration not stated), the “activity change, positive = activation” value was inactive: -17.4%. Regarding `CCCCOc1cccc(C(=O)N(Cc2cccs2)c2ccc(OC)cc2)c1`, the “activity change, positive = activation” value is inactive: -36.2%. `CC(=O)NCCn1c(SCC(=O)Nc2ccc(C)cc2)nc2ccccc2c1=O`: the “activity change, positive = activation” value is inactive: 5.66%. For the compound `CC(C)(C)c1ccc(-c2nc(SCC(=O)Nc3ccc(Cl)cc3)[nH]c(=O)c2C#N)cc1`, the “activity change, positive = activation” value is inactive: -10.2%.

With `Cc1c(-c2ccc(Cl)cc2)c(=O)oc2ccc(OC(=O)N3CCOCC3)cc12`, the “activity change, positive = activation” value was inactive: -19.5%. For the compound `COc1cccc(-n2c(-c3cccc(F)c3)nc3c(cnn3-c3ccc(C)cc3)c2=O)c1`, the “activity change, positive = activation” value is inactive: -32.6%. For the compound `CCc1cnc2c(c1SCC(=O)c1ccc(OC)cc1)c(=O)n(C)c(=O)n2C`, the “activity change, positive = activation” value is inactive: -31.9%. With `COc1ccccc1CNC(=O)CC(c1ccc(OC)c(OC)c1)N1Cc2ccccc2C1=O` (configuration not stated), the “activity change, positive = activation” value is inactive: -23.7%.

Regarding `CCCCN(CCCC)C(=O)C1CCN(S(=O)(=O)c2cccc3nsnc23)CC1`, the “activity change, positive = activation” value is inactive: -34%. As to `Cc1ccc(Cl)cc1-n1ncc2c(N3CCCCCC3)ncnc21`, the “activity change, positive = activation” value is inactive: -37.9%. For the compound `CCN(Cc1ccccc1)c1ncnc2c1nnn2C`, the “activity change, positive = activation” value is inactive: 5.38%. Same read-out and setting: under `COc1ccc(OC)c(/C=C/C(=O)Nc2ccc(C(=O)OCCC(C)C)cc2)c1` stands inactive: -12.9%; under `O=S(=O)(NCc1ccc(Cl)cc1)c1ccc(-c2cnc(C3CC3)o2)cc1`, inactive: -0.332%; under `Cc1ccccc1CN1C(=O)c2ccccc2Sc2ccc(C(=O)NC3CCCC3)cc21`, inactive: -20.4%.

Take `CCCN(C(=O)CCc1nc(-c2ccc(OC)cc2)no1)c1ccccc1F`: the “activity change, positive = activation” value was inactive: -22.1%. `CSc1ncc(C(=O)N2CCN(c3cc(Cl)ccc3C)CC2)c(C)n1`: the “activity change, positive = activation” value was inactive: -32.2%. Take `COc1cccc2cc(-c3nnc(Nc4c(F)cccc4F)s3)c(=O)oc12`: the Potency is active: 1000 nM. For the compound `Cc1oc(-c2ccccc2F)nc1CS(=O)(=O)CC(=O)NCCc1ccc(Cl)cc1`, the “activity change, positive = activation” value was inactive: -23.4%. The same measure, in the same setting: under `COc1cc(-c2nc(Cn3nnc(C(=O)Nc4ccc(C)cc4C)c3C)c(C)o2)cc(OC)c1OC` stands inactive: -2.05%; under `COc1ccc(N2CCN(c3oc(-c4ccc(COc5cccc(C)c5)o4)nc3C#N)CC2)cc1`, inactive: -19.9%; under `COc1ccc(CC(=O)NCCc2csc3nc(-c4ccccc4F)nn23)cc1`, inactive: -18%. Regarding `Cc1ccc(NC(=O)CN(C)S(=O)(=O)c2ccc3[nH]c4c(c3c2)CCCC4)c(Cl)c1`, the “activity change, positive = activation” value is inactive: -16%. On the same count and under the same terms, under `COc1ccc(NC(=O)Cn2ncc3c2-c2ccccc2OC3)cc1Cl` stands inactive: -30.7%; under `Cc1cccc(NC(=O)c2sc3nc(N4CCOCC4)c4c(c3c2N)CC(C)(C)OC4)c1`, inactive: 21.7%; under `COc1ccccc1C(=O)Nc1ccc(OCc2cc(=O)n3ccsc3n2)cc1`, inactive: -0.294%. Take `O=C(CSc1nc2c([nH]c3ccccc32)c(=O)n1-c1ccccc1)Nc1ccc2c(c1)OCCO2`: the “activity change, positive = activation” value is inactive: -22.5%.

With `Cc1ccc(C)c2sc(N3CCN(C(=O)C(C)(C)C)CC3)nc12`, the “activity change, positive = activation” value is inactive: -29.7%. With `CC(=O)N1c2ccc(S(=O)(=O)NCCC(=O)Nc3ccc(Br)c(C)c3)cc2CC1C` (configuration not stated), the “activity change, positive = activation” value was inactive: -67.3%.

Regarding `CC1=C(C(=O)Nc2ccc(C)cc2Cl)C2(CCCCCC2)OC1=O`, the “activity change, positive = activation” value is inactive: -14.4%.

As for `CCN(CC)c1sc(S(=O)(=O)c2ccccc2)nc1S(=O)(=O)c1ccc(C)cc1`, the “activity change, positive = activation” value is inactive: -27.6%. In the case of `CCC(=O)c1cc2c(cc1NC(=O)c1ccccc1F)OCCO2`, the “activity change, positive = activation” value is inactive: -11.4%. Turning to `CCOc1ccc(CCNC(=O)c2ccc(-n3c(C)cc4c3CCC(C)C4)cc2)cc1OCC` (configuration not stated), the “activity change, positive = activation” value is inactive: 2.14%. Turning to `CCOc1ccc(NC(=O)c2oc3ccccc3c2NC(=O)c2cc(C)cc(C)c2)cc1`, the “activity change, positive = activation” value was inactive: 4.8%. With `COc1ccc(CCNC(=O)Cn2ncc3c(=O)oc4ccccc4c32)c(OC)c1`, the “activity change, positive = activation” value was inactive: -1.41%. For `COc1ccc(CC(=O)NCc2ccc3c(c2)CCN3C(=O)c2ccc(Cl)cc2)cc1`, the “activity change, positive = activation” value is inactive: -1.3%. As for `CCOc1ccc(CCNC(=O)CCSCc2ccc(Cl)cc2)cc1OCC`, the “activity change, positive = activation” value is inactive: -18.6%. `Cc1cccc(Cc2c(C)nc3nc(SCC(=O)NCc4ccccc4)nn3c2C)c1`: the “activity change, positive = activation” value was inactive: -32%. On the same count and under the same terms, under `CC(C)Oc1ccc(CNC(=O)c2cccc(NC(=O)N3CCSc4ncccc43)c2)cc1` stands inactive: -30.2%; under `CCC(=O)N1CCc2cc(Br)cc(S(=O)(=O)N3CCCC(C(=O)Nc4cccc(F)c4)C3)c21` (configuration not stated), inactive: -33.4%.

Regarding `CCOC(=O)CSc1nc2sc3c(c2c(=O)n1-c1ccccc1)CCC(C(C)(C)C)C3` (configuration not stated), the “activity change, positive = activation” value was inactive: -14.3%. In the case of `O=C(Nc1cccc(Br)c1)N1CCC(CN2CCCCCC2)CC1`, the “activity change, positive = activation” value was inactive: -1.32%.

As to `COc1cccc(CNC(=O)CN(c2ccc(C(C)C)cc2)S(=O)(=O)c2c(C)noc2C)c1`, the “activity change, positive = activation” value is inactive: -37.4%. Same read-out and setting: under `CCOC(=O)c1sc(NC(=O)c2cc3nc(-c4ccccc4)cc(C(F)(F)F)n3n2)c(C(=O)OCC)c1C` stands inactive: -11.7%. Same read-out and setting: under `Cc1cc(C)cc(Oc2c(C(F)(F)F)oc3cc(OCC(=O)NC4CCCCC4)ccc3c2=O)c1` stands inactive: 1.85%.

The values are drawn from PubChem BioAssay AID1508624 (National Center for Advancing Translational Sciences (NCATS), 2021).
